Results as given in PubChem BioAssay AID2202238 (Ras Initiative Chemistry Research Team, Frederick National …, 2025).
Out of some 2,200 compounds screened, fewer than 10 were called active. The list shows a part of the results. Where no call is shown, the source marks the result inconclusive.

Biological target: GTPase KRas (Homo sapiens) (UniProt P01116)
Experiment: Cysteine mutants labelled by reactive fragments (mass read-out) (AID 2202238)
Design: protein at 5 µM with 500 µM competing thiol for 1.5 h
Settings: KRAS G12D cysteine mutants, disulfide tethering, MALDI-TOF labeling; stronger effect = higher value; H27C mutant labeling; fragment at 500 µM

Chain of UniProt P01116 (P01116 whole entry, looked up, the tested form may be a part): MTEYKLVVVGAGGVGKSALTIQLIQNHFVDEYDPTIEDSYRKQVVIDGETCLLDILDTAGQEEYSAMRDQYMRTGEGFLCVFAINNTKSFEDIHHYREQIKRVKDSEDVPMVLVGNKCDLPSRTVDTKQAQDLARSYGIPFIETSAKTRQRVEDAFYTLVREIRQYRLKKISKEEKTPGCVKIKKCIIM

SMILES	percent labeling [%]
O=C(NCCS)C1CN(C(c2ccccc2)c2ccccc2)C1	24
O=C(NCC1CCCCN1C(=O)CCS)c1ccccc1 (stereo not given)	37.3
O=C(CCCc1ccc(F)c(F)c1)NCCS	28.8
O=C(CNC(=O)Cc1ccc(O)cc1)NCCS	27.7
Cc1csc2nc(CC(=O)NCCS)cn12	26.5
O=C(NCCS)c1cc(Cc2ccccc2)[nH]n1	29.8
O=C(CCS)Nc1ccccc1Oc1cccc(F)c1	29.2
CC(C)(C)OC1CC(CC(=O)NCCS)C1(C)C (stereo not given)	32.3
O=C(CCc1nnc(C2CC2)n1-c1ccccc1)NCCS	33.6
COc1ccc(C(=O)NCCS)cc1-n1cnnn1	42.9
O=C(NCCS)c1cccc(NC(=O)c2ccc(Br)cc2)c1	10.1
O=C(CCS)N1CCC2(C=Cc3ccccc3O2)CC1	51.3
CN1CCN(Cc2ccc(NC(=O)CCS)c(F)c2)CC1	58.6
N#CCc1ccc(S(=O)(=O)N2CCC(C(=O)NCCS)CC2)cc1	27.6
O=C(CCS)N1CCN(Cc2coc(-c3ccccc3)n2)CC1	38.7
O=C(CCS)NCCNc1ncnc2sccc12	38.6
O=C(NCCS)C1CCOC2(CCOCC2)C1 (stereo not given)	28.9
NC(=O)c1cc(O)ccc1NC(=O)CCS	34.8
Cc1cc(COc2ccc(C(=O)NCCS)cc2Br)no1	19.5
CN(Cc1cnn(Cc2ccccc2)c1)C(=O)CCS	37.8

SMILES	percent labeling [%]
O=C(NCCS)c1nc2n(c1Cl)CCCC2	38.8
Cn1nc(C2CCCN(C(=O)CCS)C2)nc1N (stereo not given)	36.6
O=C(CCS)N1CCSc2c([nH]c3ccccc23)C1	34.5
O=C(CCS)N1CCN(c2cccs2)C(=O)C1	35.4
O=C(CCn1nc2ccccn2c1=O)NCCS	21.9
O=C(Cc1coc(-c2ccccc2)n1)NCCS	24.8
Cc1c(C(=O)NCCS)oc2ccc(Br)cc12	22.2
O=C(CCS)NC1CC2(CCC2)Oc2ccc(Br)cc21 (stereo not given)	30.9
CCc1nc2ccc(Cl)cn2c1C(=O)NCCS	44.3
COc1c(C)cnc(CN(C)C(=O)CCS)c1C	34.2
CC(C)(C(=O)NCCS)c1cccc(C(F)(F)F)n1	36.3
Cn1nc(-c2cccnc2)cc1C(=O)NCCS	49.3
Cc1oc(-c2cnn(C)c2)nc1C(=O)NCCS	45
O=C(CCNC(=O)c1cc(F)ccc1Br)NCCS	40
CC1(CNC(=O)CCS)OCCc2sccc21 (stereo not given)	32.1
Cn1nccc1C1=CC2CCC(C1)N2C(=O)CCS (stereo not given)	38.2
O=C(NCCS)C1CC(O)CN1c1ccncn1 (stereo not given)	27.1
O=C(NCCS)c1cc(Cl)nn1-c1ncccc1Cl	44.3
COC(=O)c1conc1C1CCN(C(=O)CCS)CC1	51.9
CCN(CC)Cc1ccccc1CNC(=O)CCS	49.1
